Reference: publication PMC12136788
The other results are listed elsewhere or left out.

T1: UNK ZnF1-3 (human, UniProt Q9C0B0 31-174)
T1 sequence: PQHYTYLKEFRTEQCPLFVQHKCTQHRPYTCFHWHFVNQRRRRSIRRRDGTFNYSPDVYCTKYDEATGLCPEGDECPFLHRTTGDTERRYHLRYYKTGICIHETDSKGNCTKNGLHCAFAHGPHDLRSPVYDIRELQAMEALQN

B1: 76003592_76003712_12668_CDS_ENSMUSG00000022565_ENSMUST00000071869|mouse|control|control (ssRNA)
RNA: GGGAGUUCUACAGUCCGACGAUCUGAGCGGUCAAUGAGGUUCUUGGUGAUGGCGUCGUCGAUGUCAUACUGGCGACCAGAGCGGCGGUCGAUGAUCAUAGACUUGACGACGCCAUCUGAGGAGGAGAUGGUGAUCUCUUCCCACAACAGAGGAUUGAGCAUCA
B2: chr1:244855233:244855234:+_ENSG00000121644_ENST00000302550|hu_mus|hu_hu_hu_mus_True|78_78 (ssRNA)
RNA: GGGAGUUCUACAGUCCGACGAUCCAUCAGAUGGUAGGCGUUGCCCUUAUACUCUUUUCCCAGUUCUUCUACAAUUUUCUCUAUAUCAUCUUCUAGAAAGUCCGUACUUCCUAGAACAACAGCUUCUUUAAAUUUAAAUGUUUCCAACAGAGGAUUGAGCAUCA
B3: chr20:57486015:57486016:+_ENSG00000087460_ENST00000306090|hu_hu|FALSE|FALSE (ssRNA)
RNA: GGGAGUUCUACAGUCCGACGAUCGUGGCCUUUUUUCCUUUUUCUGUAGGCCGCCUUAAGCUUUCUAAAUUUGGAACAUCUAAGCAAGCUGAAGGGAAAAGGGGGUUUCGCAAAAUCACUCGGGGGAAGGGAAAGGUUGCUUUGCAACAGAGGAUUGAGCAUCA
B4: chr20:57015987:57015988:+_ENSG00000124164_ENST00000520497|hu_hu|motif|central (ssRNA)
RNA: GGGAGUUCUACAGUCCGACGAUCUCCAUAACCUUCUUAACUUCGGUGUCAUCCAAAGAAGAACUCAGAGACUUAGACACGGUUGGUGUUUCUGUCUUUGAUGCAGUUGUGGAUAUAAUUUUAUUUAUUUCUACAUCAUGCAGACAACAGAGGAUUGAGCAUCA
B5: chr1:231700301:231700302:+_ENSG00000116918_ENST00000366639|hu_mus|FALSE|FALSE (ssRNA)
RNA: GGGAGUUCUACAGUCCGACGAUCGUCGGCCACGCCCAGCAGGUAGUCAACAGGGGUGAGCUUCAGUCUCCAUGUAACCAGCUGCUUCUCUUGUCCUUCCGCGGGAGGAGUCUUGCUCUCUUUCCCACUGUCUUCUGCUGUAAACAACAGAGGAUUGAGCAUCA
B6: chr19:10649910:10649911:-_ENSMUSG00000024666_ENSMUST00000025568|mus_mus|motif|central (ssRNA)
RNA: GGGAGUUCUACAGUCCGACGAUCCAUCUUCUGCCUGAUUUGUGGGACUCCCAAGGGUACAUUCCACAGUUCCGAAGAAAAUGACGGCUGGUUUUCUCUCUGCCCAGAACUCCAGGAGAGAUGUUUAGUUUUUCCAAAUCGGAGCAACAGAGGAUUGAGCAUCA
B7: chr8:117878989:117878990:-_ENSG00000164754_ENST00000297338|hu_hu|hu_hu_hu_mus_True|98_98 (ssRNA)
RNA: GGGAGUUCUACAGUCCGACGAUCCCAGAGGCCCUCGUUUACUGAGAACAAAAUGUGCGUAGAACAUUUUUCUUAUUUGCUAUGAAAUAAGAAGAAACCUGGAUCUCGGCGGGGAGCCGGGAGGGGUGGGUGGCCCGGGGAGGGCAACAGAGGAUUGAGCAUCA
B8: chr5:23948154:23948155:-_ENSMUSG00000028959_ENSMUST00000030800|mus_hu|FALSE|FALSE (ssRNA)
RNA: GGGAGUUCUACAGUCCGACGAUCCAGGGGUGCCACCCCUGCUUCCCGAGCCAGGAUCCUCUCAAGGCAGGGCAUAAACUGCUGUUCCAGGGGCAGGUAGUUCAGUCGCCCAAAGGGCAGGACCAACUUCUGUACCACCUUGCUCAACAGAGGAUUGAGCAUCA
B9: 55168479_55170727_320_CDS_ENSMUSG00000024978_ENSMUST00000061856|mouse|control|control (ssRNA)
RNA: GGGAGUUCUACAGUCCGACGAUCUUCCCAGCUCUGUGGCGUGCAGGAAUAGCAGCACCUUCCCACGAAGGGCCUCUUCCGGCUCAUAAGGCUCUCCUUCCAUUUCAGUGUUGCAGAUCUGAAGAAGGUAGGUUUGAACCCACACAACAGAGGAUUGAGCAUCA
B10: chr17:57762449:57762450:+_ENSG00000141367_ENST00000269122|hu_hu|FALSE|FALSE (ssRNA)
RNA: GGGAGUUCUACAGUCCGACGAUCUUCAUGUUUUUCCAAACGCUGAGCAAGCGAGAUAUUGUCAAAGUUGUCAUAAGCAUCUAUUGAUGUUCGCAGAGCCUGAUAAUCUUCUUCUGUAAUAAAAAGAUUGUUCAAUGAUUCAUUCAACAGAGGAUUGAGCAUCA
B11: chr3:144353948:144353949:-_ENSMUSG00000037062_ENSMUST00000163279|mus_mus|motif|central (ssRNA)
RNA: GGGAGUUCUACAGUCCGACGAUCAAAACUCCAAAGCCAAGAGACCCUAGUAAGGCCUAGUAUUUAAGUCAUCUGAUUCCGGUUGGGCAGCAAGGUAAAAAGGAGUUUUUACUUUAUUCUUUGGCUAUUGUAUCUAAUAAAUGACAACAGAGGAUUGAGCAUCA
B12: 78449589_78467943_3185_3pUTR_ENSG00000149256_ENST00000278550|human|control|control (ssRNA)
RNA: GGGAGUUCUACAGUCCGACGAUCCUUGGCCACGAAUAACACAAGCAUGCCCUCCAUCAAAGGGGUUCUCCCCGGGGAUUAUGUGCGUGCUGUCCCUGCCCACGAGGAACUUGAUGCGGUCAUAGAAGGAGUGUAGGUUCUGCUCAACAGAGGAUUGAGCAUCA
B13: 134121267_134126191_1650_CDS_ENSG00000145833_ENST00000354283|human|control|control (ssRNA)
RNA: GGGAGUUCUACAGUCCGACGAUCAUAUGUCACUCUUCGAAGAUUUGUGACCCGACCACUGUUAGCGGCUAACAUGUCAAUCAUUCGACCAGGUGUGCAAACAAUAAUUUCAGCACCUCUUUUCAGCUCAGCAAUCUGCUCACUCAACAGAGGAUUGAGCAUCA
B14: chr15:41871108:41871109:+_ENSG00000092445_ENST00000263798|hu_mus|FALSE|FALSE (ssRNA)
RNA: GGGAGUUCUACAGUCCGACGAUCUCCACCUGCCAGACUCAGACCCUGCCUUUUGAAGUCGGAUCUCUGUAACCUUUUGUCCUUCAGCAUGCCUCAGAGCCCCACAGCCAGUUCCAGGCCUUUGCAGGGUGGGGAAUCAGGAAGCAACAGAGGAUUGAGCAUCA

Target: T1, UNK ZnF1-3
Assay: nsRBNS (natural sequence RNA bind-n-seq); RBNS binding buffer (assumed for nsRBNS): 25 mM Tris pH 7.5, 150 mM KCl, 3 mM MgCl2, 0.01% Triton X-100, 500 ug/ml BSA, 20 U/ml SUPERase-In, 4 C; UNK is unkempt and MSI1 is Musashi-1; names of the RNAs are library labels; protein concentration not given here; high values mean tight binding

Point of comparison: B6, binding signal 1.4 enrichment R. Against it:
- B1 — lower, 0.551 enrichment R
- B2 — lower, 1.26 enrichment R
- B3 — lower, 1.16 enrichment R
- B4 — lower, 0.541 enrichment R
- B5 — higher, 2.11 enrichment R
- B7 — higher, 2.25 enrichment R
- B8 — lower, 1.04 enrichment R
- B9 — lower, 0.701 enrichment R
- B10 — lower, 0.643 enrichment R
- B11 — lower, 1.38 enrichment R
- B12 — lower, 1.13 enrichment R
- B13 — lower, 0.591 enrichment R
- B14 — lower, 1.21 enrichment R
